B1: mAb10930 (antibody)
heavy: EVQLVESGGGLVQPGRSLRLSCAASGFTFDDYAMYWVRQAPGKGLEWVSGISWNSGSIGYADSVKGRFTISRDNAKNSLYLQMNSLRAADTALYYCAKDKDWNSRGYYYYGMDVWGQGTTVTVSS[human IgG1 constant region left out]
light: [about 100 residues left out][about 100 residues left out]
B2: mAb10921 (antibody)
heavy: EVQLVESGGGLVQPGGSLRLSCAASGITVSSNYMSWVRQAPGKGLEWVSVIYSGGSTFYADSVKGRFTISRHNSKNTLYLQMNSLRAEDTAVYYCARERNFDAFDIWGQGTMVTVSS[human IgG1 constant region left out]
light: DIQMTQSPSSVSASVGDRVTITCRASQGISSWLAWYQQKPGKAPKLLIYAASSLQSGVPSRFSGSGSGTDFTLTISSLQPEDFATYYCQQANSFPLFTFGPGTKVDIKRTVAAPSVFIFPPSDEQLKSGTASVVCLLNNFYPREAKVQWKVDNALQSGNSQESVTEQDSKDSTYSLSSTLTLSKADYEKHKVYACEVTHQGLSSPVTKSFNRGEC
B3: mAb10920 (antibody)
heavy: QVQLVESGGGVVQPGRSLRLSCAASGFTFSYYGMHWVRQAPGKGLEWVAVIWYDGSNKFYADSVKGRFTISRDNSKNTLYLQMNSLRAEDTAVYYCAAARPGYYYGMDVWGQGTTVTVSS[human IgG1 constant region left out]
light: DIQMTQSPSSLSASVGDRVTITCRASQGISNYLAWFQQKPGKAPNSLIYAASSLQRGVPSKFSGSGSGTDFTLTISSLQPEDFATYYCQQYNSYPRTFGQGTKVEIKRTVAAPSVFIFPPSDEQLKSGTASVVCLLNNFYPREAKVQWKVDNALQSGNSQESVTEQDSKDSTYSLSSTLTLSKADYEKHKVYACEVTHQGLSSPVTKSFNRGEC
B4: mAb10964 (antibody)
heavy: QVQLQESGPGLVKPSETLSLTCTVSGGSINNYYWIWIRQPPGKGLEWIGYIYHSGSTNYNPSLKSRVTISVDTSKNQFSLKVSSVTAADTAVYYCANMVRGVYEDDYWGQGTLVTVSS[human IgG1 constant region left out]
light: DIQMTQSPSSLSASVGDRVTITCRASQSISNYLNWYQQKPGKAPKLLIFAASSLRSGVPSRFSGSGSGTDFTLTISSLHPEDFATYYCQQNYNTPLTFGPGTKVDIKRTVAAPSVFIFPPSDEQLKSGTASVVCLLNNFYPREAKVQWKVDNALQSGNSQESVTEQDSKDSTYSLSSTLTLSKADYEKHKVYACEVTHQGLSSPVTKSFNRGEC
B5: mAb10934 (antibody)
heavy: [about 100 residues left out]ARWDWYFDLWGRGTLVTVSS[human IgG1 constant region left out]
light: DIQMTQSPSSLSASVGDRVTITCQASQDIWNYINWYQQKPGKAPKLLIYDASNLKTGVPSRFSGSGSGTDFTFTISSLQPEDIATYYCQQHDDLPPTFGQGTKVEIKRTVAAPSVFIFPPSDEQLKSGTASVVCLLNNFYPREAKVQWKVDNALQSGNSQESVTEQDSKDSTYSLSSTLTLSKADYEKHKVYACEVTHQGLSSPVTKSFNRGEC
B6: mAb10955 (antibody)
heavy: EVQLVESGGGLVQPGGSLRVSCAASGFTVSRNYMSWVRQAPGKGLEWVSVIYSGGSTFYADSVKGRFTISRDNSKNTLYLQMNSLRAEDTAIYYCARYIPRFDPWGQGTLVTVSS[human IgG1 constant region left out]
light: DIQMTQSPSSLSASVGDRVTITCQASQDISNYLNWFQQKPGRAPKLLIYDASNLETGVPSRFSGSGSGTDFTFTISSLQPEDIATYYCQQYDNLPITFGQGTRLEIKRTVAAPSVFIFPPSDEQLKSGTASVVCLLNNFYPREAKVQWKVDNALQSGNSQESVTEQDSKDSTYSLSSTLTLSKADYEKHKVYACEVTHQGLSSPVTKSFNRGEC
B7: mAb10935 (antibody)
heavy: EVQLVESGGGLVQPGGSLRLSCAASGFTVSSNYMSWVRQAPGKGLEWVSLIYSGGSTYYADSVKGRFTISRHNSKNTLYLQMNSLRSEDTAVYYCARVPLGDYYYGMDVWGQGTTVTVSS[human IgG1 constant region left out]
light: DIQMTQSPSSLSASVGDRVTITCQASQDINKYLNWYQQKPGKAPKLLIYDASNLETGVPSRFSGSGSGTDFTFTISSLQPEDIATYYCQQSDNLPLTFGGGTKVEIKRTVAAPSVFIFPPSDEQLKSGTASVVCLLNNFYPREAKVQWKVDNALQSGNSQESVTEQDSKDSTYSLSSTLTLSKADYEKHKVYACEVTHQGLSSPVTKSFNRGEC
B8: mAb10954 (antibody)
heavy: EVQLVESGGGLVQPGGSLRLSCAASGITVSSNYMSWVRQAPGKGLEWVSLIYSGGSTYYADSVKGRFTISRDNSKNTLYLQMNSLRVEDTAVYYCARDHGMAAAGYNYWGQGTLVTVSS[human IgG1 constant region left out]
light: DIQMTQSPSSLSASVGDRVTITCQASQDINKYLNWYQQKPGKAPKLLIYDASNLETGVPSRFSGSGSGTDFTFTINSLQPEDFATYFCQQYDNLPPAFGQGTKVEIKRTVAAPSVFIFPPSDEQLKSGTASVVCLLNNFYPREAKVQWKVDNALQSGNSQESVTEQDSKDSTYSLSSTLTLSKADYEKHKVYACEVTHQGLSSPVTKSFNRGEC
B9: mAb10938 (antibody)
heavy: EVQLVESGGGLVQPGGSLRLSCAVSGFTVSSNYMSWVRQAPGKGLEWVSLIYSGGSTFYADSVKGRFTISRHNSKNTLYLQMNSLRAEDTAVYYCAREGGYSYDYNYWGQGTLVTVSS[human IgG1 constant region left out]
light: DIQMTQSPSSLSASVGDRVTITCQASQDIRNYLNWYQQKPGKAPKLLIYDASNLETGVPSRFSGIGSGTDFTFTISSLQPEDIATYYCQQYDNLPITFGQGTRLEIKRTVAAPSVFIFPPSDEQLKSGTASVVCLLNNFYPREAKVQWKVDNALQSGNSQESVTEQDSKDSTYSLSSTLTLSKADYEKHKVYACEVTHQGLSSPVTKSFNRGEC
B10: mAb10966 (antibody)
heavy: EVQLVESGGGLVQPGGSLRLSCAASGLTVSSNYMSWVRQAPGKGLEWVSVIYSGGSTFYADSVKGRFTISRDNSKNTLYLQMNSLRPEDTAVYYCAREGRIAATGYGMDVWGQGTTVTVSS[human IgG1 constant region left out]
light: DIQMTQSPSSLSASVGDRVTITCQASQDISNYLNWYQQKPGKAPKLLIYDASNLGTGVPSRFSGSRSGTDFTFTISSLQPEDIATYYCHQYDNLPQTFGPGTKVDIKRTVAAPSVFIFPPSDEQLKSGTASVVCLLNNFYPREAKVQWKVDNALQSGNSQESVTEQDSKDSTYSLSSTLTLSKADYEKHKVYACEVTHQGLSSPVTKSFNRGEC

“And” between values parts separate entries of the source, which are not always exact repeats. Equal values may be shown once.

This experiment deals with SARS-CoV-2 Spike Protein (RBD)(R319-F541).mmH (SARS-CoV-2). Description: Luminex, supernatant. The conditions noted are these: remark: other sources report otherwise.
For the molecule B1, the MFI came out at 25100 MFI.
Regarding B2, the MFI is 25000 MFI and 23600 MFI.
In the case of B3 it was 34800 MFI and 34400 MFI; in that of B4, 31800 MFI and 28900 MFI.
For B5, the MFI is 33800 MFI and 32600 MFI.
In the case of B6 it was 29600 MFI and 28500 MFI; in that of B7, 34900 MFI and 32600 MFI; in that of B8, 30400 MFI and 28300 MFI.
As to B9, the MFI was 29400 MFI and 27100 MFI.
The result for B10 reads 30900 MFI and 27400 MFI.

(Values after US20240043504A1.)
